Assay results taken from PMC4336329 (PLoS ONE, 2015).
Out of some 310,000 compounds screened, about 2,200 (0.71%) showed an effect of 50% or more. Effects have a minus sign here. This is one part of the list.

These compounds were tested against human ether-à-go-go-related gene (hERG) potassium channel (human, UniProt Q12809) (assay: primary screen, population patch clamp on CHO cells stably expressing hERG).
Chain of human ether-à-go-go-related gene (hERG) potassium channel (Q12809 whole entry, looked up): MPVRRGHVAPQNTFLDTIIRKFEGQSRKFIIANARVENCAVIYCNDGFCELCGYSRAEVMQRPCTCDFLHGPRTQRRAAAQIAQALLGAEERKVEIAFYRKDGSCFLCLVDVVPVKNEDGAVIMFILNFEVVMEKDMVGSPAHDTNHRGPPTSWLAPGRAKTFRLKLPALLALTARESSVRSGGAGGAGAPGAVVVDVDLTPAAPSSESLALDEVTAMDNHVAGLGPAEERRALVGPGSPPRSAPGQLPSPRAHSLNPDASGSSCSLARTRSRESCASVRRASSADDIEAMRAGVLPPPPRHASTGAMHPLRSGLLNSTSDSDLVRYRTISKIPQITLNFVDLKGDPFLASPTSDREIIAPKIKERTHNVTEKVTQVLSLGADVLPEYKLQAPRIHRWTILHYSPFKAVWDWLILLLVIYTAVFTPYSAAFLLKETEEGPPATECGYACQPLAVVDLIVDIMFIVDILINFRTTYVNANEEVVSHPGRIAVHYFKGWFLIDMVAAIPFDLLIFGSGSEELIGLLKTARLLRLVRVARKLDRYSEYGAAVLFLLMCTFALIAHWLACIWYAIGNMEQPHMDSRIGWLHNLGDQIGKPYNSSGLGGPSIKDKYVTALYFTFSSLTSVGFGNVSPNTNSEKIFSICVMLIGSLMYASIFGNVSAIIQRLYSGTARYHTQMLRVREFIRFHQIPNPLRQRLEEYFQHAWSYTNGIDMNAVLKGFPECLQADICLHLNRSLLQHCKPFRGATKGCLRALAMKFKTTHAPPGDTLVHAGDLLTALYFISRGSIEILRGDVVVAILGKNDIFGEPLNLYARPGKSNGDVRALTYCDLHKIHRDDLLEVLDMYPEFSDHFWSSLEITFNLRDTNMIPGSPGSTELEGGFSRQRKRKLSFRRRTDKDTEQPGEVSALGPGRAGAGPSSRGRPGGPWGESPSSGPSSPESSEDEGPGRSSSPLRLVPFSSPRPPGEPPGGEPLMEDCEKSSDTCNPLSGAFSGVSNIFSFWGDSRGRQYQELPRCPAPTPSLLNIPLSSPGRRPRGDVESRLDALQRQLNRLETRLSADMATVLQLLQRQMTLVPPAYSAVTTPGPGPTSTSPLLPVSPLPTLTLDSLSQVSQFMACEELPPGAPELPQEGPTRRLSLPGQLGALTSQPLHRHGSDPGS

Row | SMILES | hERG current change (%, negative = inhibition) at 1uM [%]
1 | CCC(C)NC(=O)CN(c1cc(C)ccc1OC)S(C)(=O)=O (centres unmarked) | 5.6
2 | N#Cc1c2ccc(OCC(=O)NCc3ccco3)cc2n2ccccc12 | 15.6
3 | COc1ccc(CCNC(=O)c2cc(S(=O)(=O)N3CCCC3)cn2C)cc1OC | 10.5
4 | Cc1cnc(C(=O)Nc2ccc(N3CCN(C(=O)OC(C)(C)C)CC3)cc2)cn1 | 14.9
5 | COc1ccc(S(=O)(=O)N2CCC(C(=O)N3CCN(C)CC3)CC2)cc1Cl | 15
6 | Cc1ccc(NC(=O)c2cncc(Br)c2)c(O)c1 | 12.9
7 | COc1ccc(CC(=O)NC2CCN(CC(=O)N3CCCc4ccccc43)CC2)cc1OC.Cl | 7.49
8 | COc1ccc2oc(/C=C/N(C)C)c(C(=O)c3ccc(Cl)cc3)c2c1 | 14
9 | CC1CN2C(c3ccc([N+](=O)[O-])cc3)=CSC2=N1 (centres unmarked) | -6.14
10 | Cc1ccc(NC(=S)N2CCCCC2CO)cc1C (centres unmarked) | 2.18
11 | O=C(c1cccc(F)c1)N1CCCc2ccccc21 | 11.5
12 | O=c1[nH]c(C2CCN(S(=O)(=O)c3cccc([N+](=O)[O-])c3)CC2)nc2c1nnn2Cc1ccccc1 | 7.49
13 | c1cc2ccc3ccc(-n4cnnn4)c4ccc(c1)c2c34 | -7.42
14 | Cc1ccc(N(CC(=O)Nc2ccc3c(c2)OCCO3)S(=O)(=O)c2c(C)n[nH]c2C)cc1 | 6.93
15 | CC(C)C(=O)Nc1nnc(SCC(=O)NCc2cccs2)s1 | 6.18
16 | CCCN(CC1CC1)c1nc(C)nc(Nc2c(Cl)cc(Cl)cc2Cl)c1Cl | 4.48
17 | COc1ccc2c(C)c(C)c(=O)oc2c1OC | 6.83
18 | COC(=O)C(O)(c1c[nH]c2ccccc12)C(F)(F)F (centres unmarked) | 2.07
19 | CN(C)/C=C(\C#N)C(=O)Nc1ccc(F)cc1 | 4.58
20 | CC(=O)C[C@@H](O)CC(=O)[C@H]1OC(=O)CC/C=C\Cc2ccccc21 | 17.6
21 | Cc1ccc2c(CSc3nnnn3C)cc(=O)oc2c1 | 6.3
22 | CCOC(=O)C1CCN(S(=O)(=O)CCNC(=O)c2ccc(F)cc2)CC1 | -4.36
23 | O=c1[nH]c(CN2CC=C(c3ccccc3)CC2)nc2scc(-c3cccs3)c12 | 14.1

Row | SMILES | hERG current change (%, negative = inhibition) at 1uM [%]
24 | CC(=O)N1N=C2C3CCN(CC3)C2C1c1ccc(C)cc1 (centres unmarked) | 19.7
25 | O=C1CC(N2CCN(c3ccc(O)cc3)CC2)C(=O)N1c1ccc2c(c1)OCO2 (centres unmarked) | 10.5
26 | O=C(CCSc1ccccc1)Nc1ccc(S(=O)(=O)Nc2ncccn2)cc1 | 8.35
27 | O=C(Cc1cc(=O)[nH][nH]1)N/N=C/C(Cl)=C/c1ccccc1 | 10.1
28 | Cc1ccc(NC(=S)N2CCC(NC(=O)c3ccc(C)cc3)CC2)cc1 | 8.19
29 | C/C(=N/NC(=O)CNC(=O)c1cccc(F)c1)c1ccc2c(c1)CCCC2 | 15.9
30 | CCOC(=O)c1c(C=O)c(C)n(Cc2ccc(Cl)cc2)c1C | 5.11
31 | Cl.O=C(Nc1ncccc1Cl)c1cccc(F)c1 | 8.62
32 | Cc1ccc(O)c(NC(=S)NC(=O)/C=C/c2ccco2)c1 | 12.8
33 | COc1cccc(Nc2nc(-c3ccc(O)cc3)cs2)c1 | 14.2
34 | COc1ccc(C2C(C#N)=C(N)Oc3c2c(=O)oc2ccccc32)cc1Cn1cc([N+](=O)[O-])cn1 (centres unmarked) | 5.66
35 | Cc1cc(NC(=O)NC(=O)c2ccccc2)no1 | 15.5
36 | CC(NC(=O)C(Cc1ccccc1)n1cccc1)c1ccccc1 (centres unmarked) | 12.9
37 | CC1CCN(S(=O)(=O)c2ccc3[nH]c(=O)ccc3c2)CC1 | 2.18
38 | CCCCn1c(N)c(N(CC)C(=O)c2cc3c(s2)CCCCC3)c(=O)[nH]c1=O | 2.51
39 | O=C(Nc1ccccn1)c1ccc2c(c1)OCO2 | 10.7
40 | CN(C)C(=O)N1CCCC(C(=O)NCCc2ccccc2)C1 (centres unmarked) | 7.4
41 | O=C1NCCN(Cc2ccc(-c3ccccc3)cc2)C1CC(=O)N1CCN(CCO)CC1 (centres unmarked) | 14.8
42 | O=C(Nc1ccc(OC(F)(F)F)cc1)C1CC(=O)N(Cc2ccco2)C1 (centres unmarked) | 7.93
43 | Cc1ccc(NC(=O)CCNS(=O)(=O)c2cc(Br)cnc2N)cc1Cl | 3.12
44 | COc1ccc(CN(C)CC(=O)Nc2c(C)cccc2C)c(OC)c1 | 14.3
45 | CN(C)c1ncc(S(=O)(=O)c2ccccc2)c(N)n1 | 6.11
46 | O=S(=O)(NC1CCCCC1)c1ccc(S(=O)(=O)N2CCN3CCCC3C2)cc1 (centres unmarked) | 7.24

Row | SMILES | hERG current change (%, negative = inhibition) at 1uM [%]
47 | CC1CCN(CCNC(=O)C2CCCN(S(=O)(=O)c3cccc4nonc34)C2)CC1 (centres unmarked) | -0.543
48 | CCc1nnc(NS(=O)(=O)c2ccc(NC(=S)NC(=O)/C=C/c3ccccc3)cc2)s1 | 6.09
49 | COc1ccccc1N(Cc1ccccc1)S(=O)(=O)c1cccc(C(=O)Nc2ccccn2)c1 | 2.77
50 | CCN(CC(=O)Nc1ccccc1C(F)(F)F)C(=O)CCSc1ccc(F)cc1 | 7.38
51 | Cc1ccc(NC(=O)Cc2nnc(N)s2)cc1 | 6.91
52 | Cc1cc(O)c2c(-c3ccccc3)cc(=O)oc2c1 | -3.72
53 | N#CC(C#N)=Cc1c(N2CCN(c3ccccc3)CC2)nc2ccccn2c1=O | 10.6
54 | Cc1ccc(N2C(=O)c3cccc4c(N)ccc(c34)C2=O)c2cccnc12 | 13.3
55 | O=C(CSc1nnc(-c2ccc3c(c2)OCCO3)o1)NC1CCCCC1 | 5.96
56 | O=C(NCCc1nc2ccc(Cl)cc2[nH]1)C1CCC(=O)N(Cc2cccc(F)c2)C1 (centres unmarked) | 5.73
57 | O=S(=O)(Nc1cccc(C(F)(F)F)c1)c1cnc[nH]1 | 17.2
58 | O=C(Nc1ccc2c(c1)OCO2)NC1CCN(Cc2ccccc2)CC1 | -4.05
59 | COc1ccc(CCNC(=O)C2CCCN2C(=O)NC2CCCCC2)cc1OC (centres unmarked) | 20
60 | CCCCCCN=CC1=C(O)CC(C)(C)CC1=O | 13.8
61 | CC1(C)CC(=O)c2cc(C(=O)N3CCCC(C)(C)C3)c(=O)n(-c3ccccc3)c2C1 | 5.98
62 | CCOC(=O)c1ccc(NC(=O)CN2C(=O)C(C)SC(C)C2=O)cc1 (centres unmarked) | 7.28
63 | Cc1nc(SCC(=O)NC(=O)NC(C)(C)C)nc(C)c1C | 8.07
64 | CON(C)c1nc(OCCNC(=O)OCc2ccc(Cl)cc2C)nc(N(C)C)n1 | -0.494
65 | COc1cc2c(cc1OC)C(C(=O)NCCN1CCOCC1)C1c3ccccc3CCN1C2=O (centres unmarked) | -0.202
66 | Cc1ccc(O)c(C=Nc2cc(C)ccc2O)c1 | 6.4
67 | COC(CNC(=O)CN1CCN(Cc2ccccc2F)C1=O)OC | 15.4
68 | CC(OC(=O)c1cc[n+]([O-])cc1)C(=O)Nc1ccc(Cl)cn1 (centres unmarked) | 12.6
69 | Cc1ccc(C)c(N2CCN(c3ccc4cc(S(=O)(=O)N5CCCCC5)ccc4n3)CC2)c1 | 12.7

Row | SMILES | hERG current change (%, negative = inhibition) at 1uM [%]
70 | O=C1Nc2cc(Cl)c(Cl)cc2N(O)N1c1ccccc1Cl | 13
71 | CC(C)COC(=O)OCN1C(=O)CN(CCN2CC(=O)N(COC(=O)OCC(C)C)C(=O)C2)CC1=O | 8.92
72 | CO/N=C/C1C(=O)NN=C1c1ccccc1 (centres unmarked) | 7.92
73 | COc1c(C)cc(C(=O)C2CCCN(C(=O)c3cccc(-n4cccn4)c3)C2)cc1C (centres unmarked) | 8.62
74 | COc1ccc(C2=NOC(C)(c3nnc(-c4ccccc4)o3)C2)cc1 (centres unmarked) | -11.2
75 | CC(Oc1ccc(Br)cc1)C(=O)NCC(C)(C)N1CCOCC1 (centres unmarked) | -10.9
76 | COc1ccc(NC2CCCN(C(=O)CCCN3CCCCC3=O)C2)cc1 (centres unmarked) | 23.9
77 | CC1=C(c2ccccc2)[N+](=O)C2(CCCCC2)N1[O-] | 17.8
78 | O=C(C1CCN(c2nc3ccc(Br)cc3s2)CC1)N1CCC2(CC1)OCCO2 | -1.69
79 | COc1ccc(CN2CCN(C(=O)CN3C(=O)C4C5C=CC(C5)C4C3=O)CC2)c(OC)c1OC (centres unmarked) | 13.2
80 | O=C(O)c1ccc(NC(=O)c2cn(-c3ccccc3)nc2-c2ccc(F)cc2)cc1 | 16.8
81 | COc1ccccc1-n1cc(CN2CCN(C3CCCCC3)C(CCO)C2)cn1 (centres unmarked) | 0.98
82 | COc1ccc(Nc2nnc(Cc3ccncc3)c3ccccc23)c(OC)c1 | -66.6
83 | Cc1cc(C)nc(NS(=O)(=O)c2ccc(NC(=O)Cn3c(=O)oc4ccccc43)cc2)n1 | 8.53
84 | Cc1cc(C)cc(NC(=O)CSc2nccn2Cc2ccco2)c1 | 10.8
85 | Cc1cc(C)cc(NC(=O)CCn2ccnc2C)c1 | 5.71
86 | COc1cc2c(cc1OC)C(c1ccccc1F)OC(=O)C2 (centres unmarked) | 6.41
87 | COc1ccccc1N1C(=O)c2cccnc2C1=O | 7.72
88 | CCOc1ccccc1-n1c(SCC(=O)N(C(C)C)C(C)C)nnc1-c1cccnc1 | 10.3
89 | CC(C)N(Cc1ccccc1)C(=S)NCc1ccccc1 | 11.7
